Experimental data published in article PMC6161846.
These are yes or no findings as the source states them, for the method shown. Some binding calls cover weakened binding; strength is not graded here. For some of these results: Tags and fused reporters may be left off the sequences shown. Blank lines part the entries; values can stand above or below the molecule they belong to.

Chains of the proteins cited; added tags and fusions are not shown. Lines headed by an entry give the natural chain unless they say otherwise; changes in a name come on top. Residues count along the entry.
UniProt P11940: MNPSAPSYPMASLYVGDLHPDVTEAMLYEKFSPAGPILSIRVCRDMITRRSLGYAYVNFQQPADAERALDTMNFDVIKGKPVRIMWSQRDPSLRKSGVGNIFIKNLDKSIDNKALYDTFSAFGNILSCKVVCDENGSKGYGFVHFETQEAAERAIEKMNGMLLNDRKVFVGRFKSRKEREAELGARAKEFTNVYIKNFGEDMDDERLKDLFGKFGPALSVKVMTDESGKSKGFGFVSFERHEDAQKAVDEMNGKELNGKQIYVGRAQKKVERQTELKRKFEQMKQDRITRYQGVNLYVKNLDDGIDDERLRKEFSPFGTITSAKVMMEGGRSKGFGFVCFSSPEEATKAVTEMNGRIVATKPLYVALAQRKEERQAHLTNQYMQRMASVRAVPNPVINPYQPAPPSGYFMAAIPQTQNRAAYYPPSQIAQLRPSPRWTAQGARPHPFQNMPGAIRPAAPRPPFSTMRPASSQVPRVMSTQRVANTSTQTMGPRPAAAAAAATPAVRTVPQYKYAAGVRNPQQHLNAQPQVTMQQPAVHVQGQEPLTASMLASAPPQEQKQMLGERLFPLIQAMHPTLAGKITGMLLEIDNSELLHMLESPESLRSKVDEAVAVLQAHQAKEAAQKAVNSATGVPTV
GAL4-/PABP fusion protein, PABP 1-192 (human (cDNA from chondrocytes)): residues 1-192 of P11940
GAL4-/PABP fusion protein, PABP 182-371 (human (cDNA from chondrocytes)): residues 182-371 of P11940
GAL4-/PABP fusion protein, PABP 392-636 (human (cDNA from chondrocytes)): residues 392-636 of P11940
GAL4-/PABP fusion protein, PABP 392-553 (human (cDNA from chondrocytes)): residues 392-553 of P11940

How the values were obtained:
[1] = molecular target: T1, recombinant ADAM15 cytoplasmic domain (cytoADAM) (UniProt Q13444); experiment: ELISA; cytoADAM15 immobilised; GST-PABP fragment at 0–500 nM, otherwise the same conditions as the single-concentration assay; both purified
T1 sequence: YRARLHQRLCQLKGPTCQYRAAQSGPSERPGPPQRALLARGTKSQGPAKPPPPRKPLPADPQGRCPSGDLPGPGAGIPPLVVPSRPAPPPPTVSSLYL

[2] = molecular target: T1, recombinant ADAM15 cytoplasmic domain (cytoADAM); experiment: ELISA; cytoplasmic domain of ADAM15 coated on a 96-well plate (100 ng/100 μl in PBS), blocked with 1% BSA; GST-tagged PABP domains at 500 nM, 1 h at room temperature; HRP anti-GST, ABTS, OD at 405 nm; both purified
[3] = molecular target: GAL4-/PABP fusion protein, PABP 392-636 (human (cDNA from chondrocytes)) (UniProt P11940); experiment: two-hybrid; mammalian two-hybrid (Stratagene kit) in HEK 293 cells: PABP fragments in the pCMV-BD bait vector (GAL4 DNA-binding domain), cytoplasmic tail of ADAM15 in the pCMV-AD prey vector (NFκB transactivation domain), firefly luciferase reporter read after 48 h, normalised to Renilla luciferase
[4] = molecular target: GAL4-/PABP fusion protein, PABP 1-192 (human (cDNA from chondrocytes)) (UniProt P11940); experiment: as above
[5] = molecular target: GAL4-/PABP fusion protein, PABP 182-371 (human (cDNA from chondrocytes)) (UniProt P11940); experiment: as above
[6] = molecular target: GAL4-/PABP fusion protein, PABP 392-553 (human (cDNA from chondrocytes)) (UniProt P11940); experiment: as above

- binding [1]: no binding (tested: 500 nM)
- binding [2]: no binding (tested: 500 nM)
Molecule: GST-tagged PABP C-terminal PABC domain (553-636) (from UniProt P11940 553-636) (domain or fragment)

- binding [2]: no binding (tested: 500 nM)
Molecule: GST-tagged PABP fragment 1-192 (RRM1 and 2) (from UniProt P11940 1-192) (domain or fragment)

- binding [3]: binds
- binding [4]: no binding
- binding [5]: no binding
- binding [6]: binds
B1: NFκB/cytoADAM fusion protein (cytoplasmic tail of ADAM15 in the pCMV-AD prey vector) (domain or fragment, UniProt Q13444-2 717-814)
chain: T1 sequence
